According to PubChem BioAssay AID2451 (National Center for Advancing Translational Sciences (NCATS), 2010):
The campaign covered roughly 290,000 compounds. About 2,100 (0.72%) were called active. Inconclusive results, whose numbers are uncertain, are shown with a selection of clear calls. Calls come from the whole dose curve; as a rule, active = well fitted inhibition curve with a large enough effect; inconclusive = small, poorly fitted or top-dose-only effect, or effect the other way; inactive = flat fitted curve, though single readings scatter. Potencies of inconclusive entries are doubtful fits and often do not repeat.

Biological target: Fructose-bisphosphate aldolase (Giardia intestinalis (strain ATCC 50803 / WB clone C6)) (UniProt A8B2U2)
Test: qHTS Assay for Inhibitors of Fructose-1,6-bisphosphate Aldolase from Giardia Lamblia; note: nearly all actives have a fitted effect of over 55% in size
Settings: purified Giardia FBPA; series mostly up to 59.6 µM
Summary of the method: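 Giardia FBPA (40 nM reagent) was preincubated 10 min at RT with compound (up to 57.5 uM final), then substrate plus GAPDH/TPI/NAD/arsenate coupling system with diaphorase/resazurin was added; resorufin fluorescence (525/598 nm) was read after 20 min.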
Potency is the fitted concentration of half-maximal effect; tags give direction and shape of the fitted curve.

Chain of UniProt A8B2U2 (A8B2U2 whole entry, looked up): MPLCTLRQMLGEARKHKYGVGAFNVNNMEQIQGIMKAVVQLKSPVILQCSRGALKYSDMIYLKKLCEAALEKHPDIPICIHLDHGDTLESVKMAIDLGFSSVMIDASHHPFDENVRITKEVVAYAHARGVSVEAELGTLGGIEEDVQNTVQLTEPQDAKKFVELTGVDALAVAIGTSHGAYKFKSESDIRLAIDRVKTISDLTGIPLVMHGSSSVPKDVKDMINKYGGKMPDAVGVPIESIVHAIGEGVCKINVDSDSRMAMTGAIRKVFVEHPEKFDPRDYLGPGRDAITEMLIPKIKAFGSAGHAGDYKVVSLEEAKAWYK

| Structure (SMILES) | Potency |
| --- | --- |
| O=C1C(Cl)=C(NCCN2CCOCC2)C(=O)c2ccccc21 | inconclusive: 1.78 µM [inhibitor, full curve] |
| O=c1c(C(c2ccccc2)c2c(O)sc3ccccc3c2=O)c(O)sc2ccccc12 | inactive |
| CC(C)c1ccc(C2NC(C(=O)O)CS2)cc1 (centres undefined) | inconclusive: 19.9 µM [inhibitor, single point] |
| C/C(CC(=O)NCCN1CCOCC1)=N\NC(=O)c1ccncc1 | inconclusive: 19.9 µM [inhibitor, partial curve] |
| Cc1cc2cc(CNC(=O)c3ccc(Br)o3)ccc2n1C | inconclusive: 15.8 µM [inhibitor, partial curve] |
| O=C(C(c1ccccc1)N1CCOCC1)N1CCOCC1 (centres undefined) | inconclusive: 39.8 µM [inhibitor, single point] |
| C/C=C\C=C/C(=O)Nc1cccc(C2=NOC3(C2)C[C@@H](C(N)=O)N(C(=O)COc2ccc(Cl)cc2)C3)c1 (some centres undefined) | inactive |
| Cc1cc(C(=O)O)ccc1-n1c(C)cc(/C=C2\SC(=O)NC2=O)c1C | inconclusive: 12.6 µM [inhibitor, partial curve] |
| NC(=O)c1cc2ccc(O)cc2oc1=Nc1ccccc1 | inactive |
| C=CCN1C=C2C(=O)C(C)(OC(=O)C3CCCC3)C(=O)C(c3ccccc3)=C2C=C1CCCC(=O)OC (centres undefined) | inconclusive: 3.15 µM [inhibitor, full curve] |
| Cc1nnc(Cl)c2nn(-c3ccccc3F)c(C)c12 | inconclusive: 15.8 µM [inhibitor, single point] |
| Cc1cs/c(=N\N=C\c2ccccc2)n1Cc1ccco1 | inactive |
| COc1ccc(-c2[nH]ncc2CN(C)Cc2ccccn2)c(OC)c1 | inconclusive: 44.6 µM [inhibitor, single point] |
| CCOc1ccc(C(=O)C2CCN(CC(=O)Nc3nccs3)CC2)cc1 | inconclusive: 25.1 µM [inhibitor, partial curve] |
| COCc1cc(=O)n2[nH]cc(-c3ccccc3)c2n1 | inconclusive: 12.6 µM [inhibitor, partial curve] |
| CC(=O)Nc1ccc(/C=C(\C#N)C(=O)NCc2ccccc2)cc1 | inactive |
| CN(C)c1cc(NC(=O)CNC(C)(C)C)c2ccccc2n1 | inconclusive: 6.29 µM [inhibitor, partial curve] |
| Cc1nc(C(=O)NNC(=O)c2ccc(Cl)cc2)c(C(F)(F)F)o1 | inconclusive: 17.7 µM [inhibitor, partial curve] |
| C=CCSc1nnc(NC(=O)c2ccc(Cl)nc2)s1 | inconclusive: 1.41 µM [inhibitor, full curve] |
